According to the supplement of paper PMC8728848:
The list shows a part of the results.

Tests used:
Test in all cases: glycan array binding signal (z-score within array); higher = stronger binding
Details in all cases: glycan notation: IUPAC condensed, linker removed
[1] = molecular target: Man(a1-2)Man(a1-3)[Man(a1-2)Man(a1-6)]Man
In short: (§1)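 Glycan array binding is given as a within-array Z-score, which can be read as non-binding when negative. The arrays, 3228 of them, came from the Consortium for Functional Glycomics database and were retained only where the protein sequence was available. Z-scores were averaged across arrays of the same protein sequence at different concentrations or buffers and across linkers.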

[2] = molecular target: Man(a1-2)Man(a1-3)[Man(a1-2)Man(a1-6)]Man(a1-6)[Man(a1-2)Man(a1-2)Man(a1-3)]Man
In short: as §1

[3] = molecular target: Man(a1-2)Man(a1-3)[Man(a1-2)Man(a1-6)]Man(a1-6)[Man(a1-2)Man(a1-2)Man(a1-3)]Man(b1-4)GlcNAc(b1-4)GlcNAc
In short: as §1

[4] = molecular target: Man(a1-2)Man(a1-3)[Man(a1-6)]Man(a1-6)[Man(a1-2)Man(a1-3)]Man(b1-4)GlcNAc(b1-4)GlcNAc
In short: as §1

[5] = molecular target: Man(a1-2)Man(a1-6)[Man(a1-3)]Man(a1-6)[Man(a1-2)Man(a1-2)Man(a1-3)]Man
In short: as §1

[6] = molecular target: Man(a1-2)Man(a1-6)[Man(a1-3)]Man(a1-6)[Man(a1-2)Man(a1-2)Man(a1-3)]Man(b1-4)GlcNAc(b1-4)GlcNAc
In short: as §1

[7] = molecular target: Man(a1-3)[Man(a1-6)]Man
In short: as §1

[8] = molecular target: Man(a1-3)[Man(a1-6)]Man(a1-6)[Man(a1-2)Man(a1-3)]Man(b1-4)GlcNAc(b1-4)GlcNAc
In short: as §1

[9] = molecular target: Man(a1-3)[Man(a1-6)]Man(a1-6)[Man(a1-3)]Man
In short: as §1

[10] = molecular target: Man(a1-3)[Man(a1-6)]Man(a1-6)[Man(a1-3)]Man(b1-4)GlcNAc(b1-4)GlcNAc
In short: as §1

[11] = molecular target: Man(a1-3)[Man(a1-6)]Man(b1-4)GlcNAc(b1-4)GlcNAc
In short: as §1

[12] = molecular target: Man(a1-3)[Man(a1-6)]Man(b1-4)GlcNAc(b1-4)[Fuc(a1-6)]GlcNAc
In short: as §1

[13] = molecular target: Man(a1-6)Man
In short: as §1

[14] = molecular target: Man(b1-4)GlcNAc
In short: as §1

[15] = molecular target: MurNAc(b1-4)GlcNAc
In short: as §1

[16] = molecular target: Neu5Ac(a2-3)Gal
In short: as §1

[17] = molecular target: Neu5Ac(a2-3)Gal(b1-3)GalNAc
In short: as §1

[18] = molecular target: Neu5Ac(a2-3)Gal(b1-3)GalNAc(b1-3)Gal(a1-4)Gal(b1-4)Glc
In short: as §1

[19] = molecular target: Neu5Ac(a2-3)Gal(b1-3)GalNAc(b1-4)[Neu5Ac(a2-3)]Gal(b1-4)Glc
In short: as §1

[20] = molecular target: Neu5Ac(a2-3)Gal(b1-3)GalNAc(b1-4)[Neu5Ac(a2-8)Neu5Ac(a2-3)]Gal(b1-4)Glc
In short: as §1

[21] = molecular target: Neu5Ac(a2-3)Gal(b1-3)GalNAc6S
In short: as §1

[22] = molecular target: Neu5Ac(a2-3)Gal(b1-3)GlcNAc
In short: as §1

[23] = molecular target: Neu5Ac(a2-3)Gal(b1-3)GlcNAc(b1-2)Man
In short: as §1

[24] = molecular target: Neu5Ac(a2-3)Gal(b1-3)GlcNAc(b1-2)Man(a1-3)[GlcNAc(b1-4)][Neu5Ac(a2-3)Gal(b1-3)GlcNAc(b1-2)Man(a1-6)]Man(b1-4)GlcNAc(b1-4)GlcNAc
In short: as §1

[25] = molecular target: Neu5Ac(a2-3)Gal(b1-3)GlcNAc(b1-2)Man(a1-3)[Neu5Ac(a2-3)Gal(b1-3)GlcNAc(b1-2)Man(a1-6)]Man(b1-4)GlcNAc(b1-4)GlcNAc
In short: as §1

[26] = molecular target: Neu5Ac(a2-3)Gal(b1-3)GlcNAc(b1-3)Gal(b1-3)GlcNAc
In short: as §1

[27] = molecular target: Neu5Ac(a2-3)Gal(b1-3)GlcNAc(b1-3)Gal(b1-4)GlcNAc
In short: as §1

[28] = molecular target: Neu5Ac(a2-3)Gal(b1-3)GlcNAc(b1-3)GalNAc
In short: as §1

[29] = molecular target: Neu5Ac(a2-3)Gal(b1-3)GlcNAc(b1-4)Gal(b1-4)Glc
In short: as §1

[30] = molecular target: Neu5Ac(a2-3)Gal(b1-3)GlcNAc(b1-6)GalNAc
In short: as §1

[31] = molecular target: Neu5Ac(a2-3)Gal(b1-3)GlcNAc6S
In short: as §1

[32] = molecular target: Neu5Ac(a2-3)Gal(b1-3)[Fuc(a1-4)]GlcNAc
In short: as §1

[33] = molecular target: Neu5Ac(a2-3)Gal(b1-3)[Fuc(a1-4)]GlcNAc(b1-3)Gal(b1-3)[Fuc(a1-4)]GlcNAc
In short: as §1

[34] = molecular target: Neu5Ac(a2-3)Gal(b1-3)[Fuc(a1-4)]GlcNAc(b1-3)Gal(b1-4)[Fuc(a1-3)]GlcNAc
In short: as §1

[35] = molecular target: Neu5Ac(a2-3)Gal(b1-3)[GlcNAc(b1-6)]GalNAc
In short: as §1

[36] = molecular target: Neu5Ac(a2-3)Gal(b1-3)[Neu5Ac(a2-6)]GalNAc
In short: as §1

[37] = molecular target: Neu5Ac(a2-3)Gal(b1-3)[Neu5Ac(a2-6)]GlcNAc(b1-3)[Fuc(a1-3)[Gal(b1-4)]GlcNAc(b1-6)]Gal(b1-4)Glc
In short: as §1

[38] = molecular target: Neu5Ac(a2-3)Gal(b1-3)]Neu5Ac(a2-3)Gal(b1-4)]GlcNAc
In short: as §1

B1: LSL-150 (Laetiporus sulphureus), Q7Z8V1 (protein)
chain: MTDIYIPPEGLYFRLLGFASRQVIFARNSPSPDVGLSPVNDQATDQYFSLIYGTGEHAGLYAIKSKATGKVLFSRRPAEPYVGQIDGDGRYPDNWFKIEPGKTYLSKYFRLVQPSTGTALVSRTHLQPYFWNHPQTEVFDDQYFTFLFEDHHHHHH
glycan array binding signal (z-score) [1]: -0.208
glycan array binding signal (z-score) [2]: -0.211
glycan array binding signal (z-score) [3]: -0.213
glycan array binding signal (z-score) [4]: -0.208
glycan array binding signal (z-score) [5]: -0.212
glycan array binding signal (z-score) [6]: -0.209
glycan array binding signal (z-score) [7]: -0.2
glycan array binding signal (z-score) [8]: -0.206
glycan array binding signal (z-score) [9]: -0.204
glycan array binding signal (z-score) [10]: -0.203
glycan array binding signal (z-score) [11]: -0.208
glycan array binding signal (z-score) [12]: -0.208
glycan array binding signal (z-score) [13]: -0.204
glycan array binding signal (z-score) [14]: -0.209
glycan array binding signal (z-score) [15]: -0.2
glycan array binding signal (z-score) [16]: -0.213
glycan array binding signal (z-score) [17]: -0.208
glycan array binding signal (z-score) [18]: -0.206
glycan array binding signal (z-score) [19]: -0.203
glycan array binding signal (z-score) [20]: -0.202
glycan array binding signal (z-score) [21]: -0.202
glycan array binding signal (z-score) [22]: -0.194
glycan array binding signal (z-score) [23]: -0.196
glycan array binding signal (z-score) [24]: -0.208
glycan array binding signal (z-score) [25]: -0.203
glycan array binding signal (z-score) [26]: -0.207
glycan array binding signal (z-score) [27]: -0.174
glycan array binding signal (z-score) [28]: -0.213
glycan array binding signal (z-score) [29]: -0.216
glycan array binding signal (z-score) [30]: -0.209
glycan array binding signal (z-score) [31]: -0.202
glycan array binding signal (z-score) [32]: -0.205
glycan array binding signal (z-score) [33]: -0.215
glycan array binding signal (z-score) [34]: -0.208
glycan array binding signal (z-score) [35]: -0.21
glycan array binding signal (z-score) [36]: -0.208
glycan array binding signal (z-score) [37]: -0.203
glycan array binding signal (z-score) [38]: -0.206
